Measured values: PubChem BioAssay AID902 (National Center for Advancing Translational Sciences (NCATS), 2007)
Values joined by “and” are separate entries in the source; they are usually repeats but may differ in a detail not shown here. Identical values can stand only once. The whole screen tested about 130,000 compounds, of which about 1,900 (1.5%) were called active. Inconclusive results, whose numbers are uncertain, are shown with a selection of clear calls. Calls follow the shape of the dose curve; as a rule, active = well fitted cell-killing curve with a large enough effect; inconclusive = small, poorly fitted or top-dose-only effect; inactive = no such curve, though single readings can be large or run the other way. Potencies of inconclusive entries are doubtful fits and often do not repeat.

Test: qHTS Screen for Compounds that Selectively Target Cancer Cells with p53 Mutations: Cytotoxicity of p53ts Cells at the Nonpermissive Temperature; also: nearly all actives have a fitted effect of over 55% in size
Conditions: H1299-p53A138V viability at 39C, ATP luminescence, 24 h; series mostly up to 46.1 µM
Potency is read from the fitted curve at half-maximal effect; tags tell the direction and shape of the fitted curve.

SMILES	Potency
CC(C)c1ccc(NS(=O)(=O)c2ccc3[nH]cc(C(=O)NC4CCCC4)c(=O)c3c2)cc1	inconclusive: 31.6 µM [cytotoxic, single point]
CCC(=O)/C=C1\Sc2ccc(OC)cc2N1CCO	inactive
CN1C(=O)CSc2ccc(NC(=O)N3CCOCC3)cc21	inactive
CCN(CC)c1nc(-c2ccc(C(C)(C)C)cc2)nc2ccccc12	active: 12.6 µM
CC1CCN(S(=O)(=O)c2ccc3c(c2)N(CC(=O)NCc2ccccc2)C(=O)CO3)CC1	inactive
CCNc1ncc2nc(-c3ccc(OC)cc3)c(=O)n(C)c2n1	inconclusive: 20 µM [cytotoxic, partial curve]
O=C(Cn1ncc2c(=O)oc3ccccc3c21)Nc1cc(F)ccc1F	active: 6.31 µM
CC(C)(C)c1ccc(-c2cc(N)n[nH]2)cc1	inconclusive: 15.8 µM [cytotoxic, partial curve]
COc1ccc(NC(C)=O)cc1NC(=O)CN1CCN(C2c3ccccc3-c3ccccc32)CC1	inconclusive: 31.6 µM [cytotoxic, single point]
Cc1c(NC(=O)c2cc([N+](=O)[O-])ccc2N2CCOCC2)cccc1-c1nc2ccccc2o1	inconclusive: 0.316 µM [cytotoxic, partial curve]
Cn1c(CNc2ccc(Cl)cc2)nc2ccccc21	inconclusive: 12.6 µM [cytotoxic, single point]
Cc1ccc(C(=O)Nc2ncc(Cc3ccccc3)s2)o1	inconclusive: 3.98 µM [cytotoxic, full curve, poor fit]
O=c1cc(-c2cccc(O)c2O)oc2ccccc12	active: 10 µM
CCCC(=O)NC1CC(=O)N(c2ccc3c(c2)OCCO3)C1 (stereo not given)	inactive
Cc1cccc(N2CCN(C(=O)Cn3nc(C)c4sc5ccccc5c4c3=O)CC2C)c1 (stereo not given)	inactive
CCOc1ccccc1NC(=O)c1ccc2oc(=O)c(S(=O)(=O)c3ccc(F)cc3)cc2c1	inconclusive: 12.6 µM [cytotoxic, single point]
O=c1c(-c2ccc(O)cc2)coc2cc(O)cc(O)c12	inconclusive: 10 µM [cytotoxic, partial curve] and inconclusive: 7.94 µM [cytotoxic, full curve]
Nc1nc(N2C(=O)C3CC=CCC3C2=O)nn1-c1ccccc1 (stereo not given)	inactive
C=Cc1ccc(Cn2c(C(=O)O)c(CNCc3cc(OC)ccc3OC)c3ccc(C)cc32)cc1	active: 12.6 µM
COc1ccc(CCNC(=O)C(C)n2nc(C)c3sc4ccccc4c3c2=O)cc1OC (stereo not given)	inconclusive: 12.6 µM [cytotoxic, single point]
COc1ccc(-c2nc(C)c(CCNC(=O)c3cccc(C)c3)s2)cc1OC	inconclusive: 12.6 µM [cytotoxic, partial curve]
Cc1ccc(-n2nc(C)c3c(C)c(CCC(=O)NCc4cccc(Cl)c4)c(C)nc32)cc1C	inconclusive: 25.1 µM [cytotoxic, partial curve]
O=C(CSc1c2c(nc3ccc(Cl)cc13)CCCC2)N1CCCCC1	inconclusive: 15.8 µM [cytotoxic, single point]

SMILES	Potency
C=CCNc1ncnc2c1cnn2-c1ccc(OC)cc1	inconclusive: 12.6 µM [cytotoxic, partial curve]
O=C(Nc1ccc(F)c(Cl)c1)C1CCCN(c2ncnc3onc(-c4ccc(F)cc4)c23)C1 (stereo not given)	inactive
CCOc1ccc(NC(=O)c2cccc(N3CCCS3(=O)=O)c2)cc1	inactive
Cc1cccc(-c2cc(NC(=O)c3ccccc3C)n(-c3ccccc3)n2)c1	inconclusive: 0.0398 µM [cytotoxic, full curve, poor fit]
CC(=O)NC1=C(NC2CCS(=O)(=O)C2)C(=O)c2ccccc2C1=O (stereo not given)	inconclusive: 14.1 µM [cytotoxic, single point]
O=C(CC(c1cccs1)N1Cc2ccccc2C1=O)Nc1ccc(Cl)cc1 (stereo not given)	inconclusive: 1.58 µM [cytotoxic, full curve, poor fit]
O=C1CCNc2cc3ccccc3cc21	active: 15.8 µM
CC(=O)N1CCCc2cc(S(=O)(=O)N(C)CC(=O)Nc3ccc(C(C)C)cc3)ccc21	inconclusive: 20 µM [cytotoxic, partial curve]
CCCCCOc1ccc(/C=c2\sc3nc(=O)c(-c4ccccc4)nn3c2=O)cc1OC	inactive
COc1ccc(C(=O)Oc2c(Sc3ccccc3)c(C)nn2-c2ccccc2)c(OC)c1	inconclusive: 15.8 µM [cytotoxic, single point]
COc1ccc2oc(=Nc3ccccc3)c(-c3nc4ccccc4[nH]3)cc2c1	inconclusive: 14.1 µM [cytotoxic, single point]
Cc1cccc(C)c1OCCn1c(CCNC(=O)C2CCCCC2)nc2ccccc21	inconclusive: 7.94 µM [cytotoxic, partial curve]
Cc1ccc(-c2noc(C3CCCN(C(=O)c4ccccc4)C3)n2)o1 (stereo not given)	inconclusive: 15.8 µM [cytotoxic, partial curve]
CCCCN1C(=O)C(O)(CC(=O)c2ccc(CC)cc2)c2cc(Br)ccc21 (stereo not given)	inconclusive: 20 µM [cytotoxic, single point]
Cc1cc(NC(=O)c2ccc3c(c2)OCCO3)no1	active: 2 µM
Cc1ccc2c(c1)C(c1ccccc1)N(C(=O)COc1ccc(Cl)cc1Cl)CC(=O)N2 (stereo not given)	inactive
CN1CCN(C2=Cc3ccccc3Sc3cc(F)c(Cl)cc32)CC1	inconclusive: 35.5 µM [cytotoxic, single point]
COc1ccc(NC(=O)CCc2c(C)nn(-c3ccc(N4CCCC4)nn3)c2C)cc1Cl	inconclusive: 3.98 µM [cytotoxic, partial curve]
COc1ccc(N2CCN(C(=O)Cn3cnc4sc(C)c(S(=O)(=O)N5CCCCC5)c4c3=O)CC2)cc1	inactive
CCOC(=O)N1CCc2c(sc(NCc3cc(OC)ccc3OC)c2C(=O)Nc2cc(OC)ccc2OC)C1	inactive
CS(=O)(=O)c1ccc2nc(NC(=O)c3cccs3)sc2c1	active: 2.51 µM
Cc1cc(C)cc(C(=O)Nc2ccc(-c3nc4ncccc4o3)cc2)c1	active: 10 µM
